Test results reported in PubChem BioAssay (NCI).
“And” between values parts separate entries of the source, which are not always exact repeats. Equal entries are not always repeated.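 Each compound was tested at five concentrations against cells in 96-well plates for 48 hours. Here, GI50 denotes the concentration required for 50% inhibition of growth. TGI marks complete inhibition of growth.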

Tested on: NCI-H322M lung
Test: growth of human tumour cells (NCI), 48 h

| Compound | TGI | GI50 |
| --- | --- | --- |
| OCC(O)C(O)C(O)c1nn(-c2ccccc2)c2nc3cc(Cl)c(Cl)cc3nc12 (centres undefined) | > 100 µM |  |
| O=C1/C(=C/c2ccccc2)NC(=S)N1CN1CCCCC1 | > 100 µM |  |
| COC1(c2cccs2)c2ccccc2C(OC)(c2cccs2)c2ccccc21 (centres undefined) | > 100 µM |  |
| CN(C)CCNC(=O)c1ccc(Cl)c2cc3ccccc3nc12 | 7.07 µM |  |
| COc1ccc2c(c1)c1nn(CCN3CCCCC3)c3ccc4c(=O)n(CCN(C)C)c(=O)n2c4c13 | 0.264 µM |  |
| CC(C)C(=O)[O-].CC(C)C(=O)[O-].N.N.N.N.[Co+3].[O-][Cl+3]([O-])([O-])[O-] | > 100 µM | > 100 µM |
| CC1CCCc2c1c1ccc3c(O)cccc3c1oc2=O (centres undefined) | > 100 µM |  |
| CCN(CC)c1ccc(N=C2C=C(Cl)C(=O)c3ncccc32)c(C)c1 | 80.4 µM |  |
| COc1c2ccsc2c(OC)c2ccsc12 | > 100 µM |  |
| C[C@@H](COCCC(=O)N1CCN(c2ncc(C(F)(F)F)cn2)CC1)Nc1cn[nH]c(=O)c1C(F)(F)F | > 100 µM | > 100 µM |
| CCN(CC)CCOc1ccc(C(O)(Cc2ccc(OC)cc2)c2ccccc2)cc1 (centres undefined) | > 100 µM |  |
| CCOC(=O)C(=O)CC(=O)C1=C(c2ccccc2OC)CC(c2cccs2)=CC1=O | > 100 µM |  |
| O=c1cccccc1[O-].O=c1cccccc1[O-].O=c1cccccc1[O-].[Ce+3] | 86.1 µM |  |
| CC(=O)OCCCCn1cc(Cn2ccc(=O)n(Cc3cn(CCCCOC(C)=O)nn3)c2=O)nn1 | > 100 µM |  |
| CCCCCCCCCCCCCCCCCC(=O)Nc1ccn(C2CCC(COP(=O)(O)O)O2)c(=O)n1 (centres undefined) | > 100 µM |  |
| Cn1cnc2c(F)c(Nc3ccc(Br)cc3F)c(C(=O)NOCCO)cc21 | > 100 µM | 0.245 µM and 0.287 µM |
| Cc1ccc(S(=O)(=O)n2ccc(-c3ccc4ccn(S(=O)(=O)c5ccc(C)cc5)c4c3)c2)cc1 | > 100 µM |  |
| COc1ccc(Cn2cc3c(c2-c2cc(OC)c(OC)c(OC)c2)CCc2cnoc2-3)cc1N | > 100 µM | 0.0599 µM |
| C=Cc1nc(C#N)c(N)o1 | > 100 µM |  |
| CC(=O)OC1CCC2C(=CCC3C2(C)C(=O)CC2(C)C(C4(C)OC(C(C)C)=CC4=O)C(O)CC32C)C1(C)C (centres undefined) | > 100 µM |  |
| CCc1ccc2nccc(NCCCN(C)C)c2c1[N+](=O)[O-] | > 100 µM |  |
| N=c1oc2ccccc2cc1-c1nc2ccccc2c(=O)[nH]1 | > 100 µM |  |
| CCOC(=O)CCC(NC(=O)Cc1ccc(Oc2nc3ccccc3nc2-c2ccccc2)cc1)C(=O)OCC (centres undefined) | > 100 µM |  |
| O=[N+]([O-])c1ccc(N2N=C(c3ccc4ccccc4c3O)CC2c2ccc(Cl)cc2)c([N+](=O)[O-])c1 (centres undefined) | > 100 µM |  |

| Compound | TGI | GI50 |
| --- | --- | --- |
| O=C(N/N=C/c1ccc(Cl)cc1Cl)c1ccc2nc(-c3ccc(Cl)cc3)[nH]c2c1 | 5.26 µM | 2.15 µM |
| COc1nc2c(nc(N)n2C2OCC(O)C(O)C2O)c(=O)n1C (centres undefined) | > 100 µM |  |
| O=c1oc2c3ccc4cnccc4c3[nH]c2c2ccccc12 | > 100 µM | 56.7 µM |
| Cc1ccccc1C(=O)Oc1ccc(OCc2ccccc2)cc1 | > 100 µM |  |
| O=C1C(=O)N(c2nccs2)C(=O)C(=O)C1c1nc2ccccc2s1 | > 100 µM |  |
| O=[N+]([O-])c1ccc(O)c(/C=N/c2nc(-c3ccccc3)cs2)c1 | 63.1 µM |  |
| CC(C)CC12CC3CCC(CNC1=O)C32C (centres undefined) | > 100 µM |  |
| CCC(=O)/C(=C\I)c1ccccc1 | 27.6 µM |  |
| CC12ON(P(=O)(c3ccccc3)c3ccccc3)C(C)(c3ccccc31)c1ccccc12 | > 100 µM |  |
| COc1ccc(-c2cc(-c3cccc(NS(C)(=O)=O)c3)nc(N)c2C#N)cc1 | > 82.7 µM | 0.461 µM |
| C=C(CNC(=O)c1ccccc1)c1ccc(C(=O)Nc2ccccc2N)cc1 | > 100 µM | 4.32 µM |
| COc1c(C)c(C/C=C(\C)CC/C=C(\C)CC/C=C(\C)CCC=C(C)C)c(OC)c2ccccc12 | > 100 µM |  |
| COc1cccc(N=N/C(=N\NC(=O)c2cc(Br)ccc2O)c2ccc(N(CCC#N)CCC#N)cc2OC)c1 | > 150 µg/mL | 89.1 µg/mL |
| COC(=O)C1=CON2C3CC4CC(C3)CC(C4)C12C (centres undefined) | > 100 µM |  |
| O=C(Nc1nc2ccc([N+](=O)[O-])cc2s1)C(=O)C(C(=O)c1ccncc1)C1OC(=O)c2ccccc21 (centres undefined) | > 100 µM |  |
| CN(C)c1ccc(/C=C/C(=O)O)cc1 | > 100 µM |  |
| Cc1c(O)c(OC2OC(CO)C(O)C(O)C2O)cc2c1C=C[C@@H]1[C@@]2(C)C(=O)C[C@]2(C)[C@@H]([C@@](C)(O)C(=O)CCC(C)(C)O)[C@H](O)C[C@@]12C (some centres undefined) | 58.2 µM |  |
| CCOC(=O)C(=CN1CCNC1=S)C(=O)OCC | > 100 µM |  |
| Cc1ccc(Nc2cc(C)nc(NCCCNc3ccnc4cc(Cl)ccc34)n2)cc1 | 3.75 µM | 1.55 µM |
| CN1C[C@@H]2Cn3c(c(C4=C(c5cn(C)c6ccccc56)C(=O)NC4=O)c4ccccc43)C[C@H]2C1 | 12 µM and 15 µM | 4.96 µM and 4.6 µM |
| FC(F)(F)c1cccc2c(SCCc3n[nH]c(=S)o3)ccnc12 | > 100 µM | > 100 µM |
| Cc1c2ccccc2c(C)n2c1nc1ccccc12 | 14.8 µM |  |
| CC(=O)OC(C)c1cc2c(s1)C(=O)c1c(C(C)OC(C)=O)csc1C2=O (centres undefined) | 2.81 µM |  |
| CC(=O)OCC12CCC3C4(C)CCCC(C)(C)C4CCC3(C)C1CC(C1=CC(=O)OC1O)O2 (centres undefined) | 3.63 µM |  |

| Compound | TGI | GI50 |
| --- | --- | --- |
| O=C(N/C(=C\c1ccc(/C=C(\NC(=O)c2ccccc2)c2nc3ccccc3s2)cc1)c1nc2ccccc2s1)c1ccccc1 | 25.4 µM |  |
| CSc1ccc(SC2c3ccc(C)cc3Oc3nc(N)c(C#N)c(N)c32)cc1 (centres undefined) | 3.03 µM | 1.66 µM |
| O=C(NC1C2CC3CC(C2)CC1C3)/C(Cl)=C1/Sc2ccccc2NC1=O (centres undefined) | > 100 µM |  |
| COc1ccc(-c2ccc(-c3ccc(C(=N)N)cn3)o2)cc1Cl | 3.28 µM | 1.63 µM |
| O=C1C2=C(SCCS2)C(=O)c2c(Sc3ccc(Cl)cc3)c(Sc3ccc(Cl)cc3)c(Sc3ccc(Cl)cc3)c(Sc3ccc(Cl)cc3)c21 | > 100 µM |  |
| N[C@H](CCC(=O)NCP(=O)(O)O)C(=O)O | > 100 µM |  |
| COc1ccc(CNc2nc3cc(C(F)(F)F)ccc3nc2-c2ccccc2)cc1OC | > 100 µM |  |
| CCCCCCCCCCCCCCCCCCOc1ccccc1CC(=O)NCC[N+](C)(C)C | > 100 µM | 10.2 µM |
| CC1(C(=O)O)CCOc2ccccc21 (centres undefined) | > 100 µM |  |
| O=C1CS[C@@](CC(c2ccc(Cl)cc2)c2ccc(Cl)cc2)(c2ccc(Cl)cc2)N1 | > 100 µM |  |
| COc1cc(F)c(/C=C/c2cc(/C=C/c3cc(OC)c(OC)cc3F)n(-c3cc(F)cc(F)c3)n2)cc1OC | 8 µM | 2.67 µM |
| O=C(Nc1ccc(Br)cc1)C(=O)C(C(=O)c1ccccc1F)C1OC(=O)c2ccccc21 (centres undefined) | 81.4 µM |  |
| Fc1ccc2c(c1)C1=C(CO2)C(c2ccc(Cl)cc2)NC(=S)N1 (centres undefined) | 38.9 µM | 7.56 µM |
| COC(=O)[C@]12CC[C@@H](C)[C@H](C)[C@@H]1C1=CC[C@@H]3[C@@]4(C)C(C=O)=C[C@@](C)(COS(C)(=O)=O)C4[C@H](O)C[C@@]3(C)[C@]1(C)CC2 (some centres undefined) | 13.9 µM | 3.13 µM |
| O=C1c2ccccc2-c2c1c1ccc([N+](=O)[O-])cc1c(=O)n2CCCNCCO | 3.61 µM | 0.943 µM |
| N#C/C(=C\c1c(-c2ccccc2)[nH]c2ccccc12)C(=O)c1ccccc1 | > 100 µM | 3.82 µM |
| Clc1cc(-c2ccccc2)nc2ccccc12 | > 100 µM |  |
| CC(C)(C)OC(=O)N1[C@@H]2Cc3ccc(N)cc3[C@@]1(C)c1ccccc12 | > 100 µM |  |
| NCCCN1CCN(CCCNc2nc3ccccc3c3[nH]c4ccccc4c23)CC1 | 5.84 µM | 0.437 µM |
| COc1ccccc1C1(C)SCc2nc3ccccc3n21 (centres undefined) | > 10 µM |  |
| COc1ccc2c(c1)c(-c1ccc(-c3cn(C)c4ccc(OC)cc34)[nH]1)cn2C | 34.7 µM | 7.17 µM |
| NS(=O)(=O)c1ccc(-n2ncc3c(Nc4ccccc4)ncnc32)cc1 | > 100 µM | 31.5 µM |
| CCN(CC)CCOC(=O)Cc1cccc2c(=O)cc(-c3ccccc3)oc12 | 62.5 µM and > 107 µM | > 71.5 µM |
| Cc1cc(C)c(S(=O)(=O)N(CCc2cccc(Br)c2)Cc2ccc(-c3cccc(S(C)(=O)=O)c3)cc2)c(C)c1 | > 100 µM | > 100 µM |

| Compound | TGI | GI50 |
| --- | --- | --- |
| Cc1ccc(C2=C(c3ccc(C)cc3)C(c3ccc(C)cc3)=C(c3ccc(C)cc3)C2=O)cc1 | > 100 µM |  |
| CN(C)CCCCn1ccc2c1C(=O)c1c(c(O)c3ccccc3c1O)C2=O | 11.7 µM | 1.63 µM |
| Cc1ccc(C=NC23CC4CC(CC(C4)C2)C3)cc1 | > 100 µM |  |
| CN(C)CCSCCO | > 100 µM |  |
| CCOC(=O)C(C(=O)OCC)C(=O)c1ccccc1C(=O)c1ccccc1 | > 100 µM |  |
| COc1ccc(C2SCC(=O)N2NC(=O)C(C)Oc2ccccc2C)cc1 (centres undefined) | > 100 µM |  |
| COc1cc(NC(=O)NCc2ccco2)ccc1-c1ccc(NC(=O)NCc2ccco2)cc1OC | 8.54 µM | 2.25 µM |
| CC(=O)/C=C1\CC(=O)Nc2ccccc2N1 | > 100 µM |  |
| Cn1ccnc1CCc1ccc(Cl)c(Cl)c1 | > 100 µM |  |
| O=[N+]([O-])c1cccc(Cl)c1Oc1ccc(S(=O)(=O)/N=C(\NO)Nc2ccc(Cl)cc2)cc1 | 24.8 µM |  |
| COC(=O)c1cccc(OC)c1C#Cc1c(OC)cccc1OC | > 100 µM |  |
| COc1cc2c3c(n(CCCBr)c(=O)c2cc1OC)-c1ccc(F)cc1C3=O | > 100 µM | 60.8 µM |
| CN(CC(=O)O)Cc1oc(CO)cc(=O)c1O | > 100 µM |  |
| CC12CCC(C(=Nc3cc(C(F)(F)F)cc(C(F)(F)F)c3)C1=O)C2(C)C (centres undefined) | > 100 µM |  |
| c1csc(-c2ccsc2-c2ccsc2)c1 | > 100 µM |  |
| O=C(C(Cl)=C(N1CCCCC1)N1CCCCC1)C(Cl)Cl | > 100 µM |  |
| O=S(=O)(NC1=NCCN1C(=S)SN1CCn2c1nsc2=S)c1ccccc1Cl | 77.7 µM | 24.2 µM |
| CCOC(=O)c1ccc(N2C(=O)Cc3ccccc3C2=O)cc1 | > 100 µM |  |
| Cc1cc(O)cc(O)c1C(=O)O[C@]1(C)C(=O)C=C2C=C(/C=C/C(=O)O)OC=C2C1=O | > 100 µM |  |
| CCC1(NC(=O)c2cc(F)c(F)c(F)c2F)C(=O)NC(=O)N(C(C)C)C1=O (centres undefined) | > 100 µM | 40.6 µM |
| S=c1sc2cscc2s1 | 36.6 µM |  |
| COc1ccc2c(CCNC(=O)/C=C/c3ccccc3)c(C(C)=O)[nH]c2c1[N+](=O)[O-] | > 100 µM |  |
